# Test results: the supplement of paper PMC8728848
# Some of the results follow.
# Key:
# Assay in all cases: glycan array binding signal (z-score within array); higher = stronger binding
# Details in all cases: glycan notation: IUPAC condensed, linker removed
# Neu5Ac(a2-3)Gal(b1-4)Glc = target: Neu5Ac(a2-3)Gal(b1-4)Glc
# Summary of the method: (§1)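 Glycan array binding is given as a within-array Z-score, which can be read as non-binding when negative. The arrays, 3228 of them, came from the Consortium for Functional Glycomics database and were retained only where the protein sequence was available. Z-scores were averaged across arrays of the same protein sequence at different concentrations or buffers and across linkers.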
# [1] = target: Neu5Ac(a2-3)Gal(b1-4)GlcNAc
# Summary of the method: as §1
# [2] = target: Neu5Ac(a2-3)Gal(b1-4)GlcNAc(b1-2)Man(a1-3)[GlcNAc(b1-2)Man(b1-4)GlcNAc(b1-2)Man(a1-6)]Man(b1-4)GlcNAc(b1-4)GlcNAc
# Summary of the method: as §1
# [3] = target: Neu5Ac(a2-3)Gal(b1-4)GlcNAc(b1-2)Man(a1-3)[Neu5Ac(a2-6)Gal(b1-4)GlcNAc(b1-2)Man(a1-6)]Man(b1-4)GlcNAc(b1-4)GlcNAc
# Summary of the method: as §1
# [4] = target: Neu5Ac(a2-3)Gal(b1-4)GlcNAc(b1-3)Gal(b1-3)GlcNAc
# Summary of the method: as §1
# [5] = target: Neu5Ac(a2-3)Gal(b1-4)GlcNAc(b1-3)Gal(b1-4)GlcNAc
# Summary of the method: as §1
# [6] = target: Neu5Ac(a2-3)Gal(b1-4)GlcNAc(b1-3)Gal(b1-4)GlcNAc(b1-3)Gal(b1-4)GlcNAc
# Summary of the method: as §1
# [7] = target: Neu5Ac(a2-3)Gal(b1-4)GlcNAc(b1-3)Gal(b1-4)[Fuc(a1-3)]GlcNAc
# Summary of the method: as §1
# [8] = target: Neu5Ac(a2-3)Gal(b1-4)GlcNAc(b1-3)GalNAc
# Summary of the method: as §1
# [9] = target: Neu5Ac(a2-3)Gal(b1-4)GlcNAc(b1-6)[Gal(b1-3)]GalNAc
# Summary of the method: as §1
# [10] = target: Neu5Ac(a2-3)Gal(b1-4)GlcNAc(b1-6)[Neu5Ac(a2-3)Gal(b1-3)]GalNAc
# Summary of the method: as §1
# [11] = target: Neu5Ac(a2-3)Gal(b1-4)GlcNAc6S
# Summary of the method: as §1
# [12] = target: Neu5Ac(a2-3)Gal(b1-4)[Fuc(a1-3)]GlcNAc
# Summary of the method: as §1
# [13] = target: Neu5Ac(a2-3)Gal(b1-4)[Fuc(a1-3)]GlcNAc(b1-3)Gal
# Summary of the method: as §1
# [14] = target: Neu5Ac(a2-3)Gal(b1-4)[Fuc(a1-3)]GlcNAc(b1-3)Gal(b1-4)GlcNAc
# Summary of the method: as §1
# [15] = target: Neu5Ac(a2-3)Gal(b1-4)[Fuc(a1-3)]GlcNAc(b1-3)Gal(b1-4)[Fuc(a1-3)]GlcNAc(b1-3)Gal(b1-4)[Fuc(a1-3)]GlcNAc
# Summary of the method: as §1
# [16] = target: Neu5Ac(a2-3)Gal(b1-4)[Fuc(a1-3)]GlcNAc(b1-6)[Gal(b1-3)]GalNAc
# Summary of the method: as §1
# [17] = target: Neu5Ac(a2-3)Gal(b1-4)[Fuc(a1-3)]GlcNAc(b1-6)[Neu5Ac(a2-3)Gal(b1-3)]GalNAc
# Summary of the method: as §1
# [18] = target: Neu5Ac(a2-3)Gal(b1-4)[Fuc(a1-3)]GlcNAc6S
# Summary of the method: as §1
# [19] = target: Neu5Ac(a2-3)Gal6S(b1-4)GlcNAc
# Summary of the method: as §1
# [20] = target: Neu5Ac(a2-3)Gal6S(b1-4)[Fuc(a1-3)]GlcNAc
# Summary of the method: as §1
# Neu5Ac(a2-3)GalNAc = target: Neu5Ac(a2-3)GalNAc
# Summary of the method: as §1
# [21] = target: Neu5Ac(a2-3)GalNAc(b1-4)GlcNAc
# Summary of the method: as §1
# [22] = target: Neu5Ac(a2-3)[GalNAc(b1-4)]Gal(b1-4)Glc
# Summary of the method: as §1
# [23] = target: Neu5Ac(a2-3)[GalNAc(b1-4)]Gal(b1-4)GlcNAc
# Summary of the method: as §1
# [24] = target: Neu5Ac(a2-3)[Neu5Ac(a2-6)]GalNAc
# Summary of the method: as §1
# Neu5Ac(a2-6)Gal = target: Neu5Ac(a2-6)Gal
# Summary of the method: as §1
# Neu5Ac(a2-6)Gal(b1-4)Glc = target: Neu5Ac(a2-6)Gal(b1-4)Glc
# Summary of the method: as §1
# [25] = target: Neu5Ac(a2-6)Gal(b1-4)GlcNAc
# Summary of the method: as §1
# [26] = target: Neu5Ac(a2-6)Gal(b1-4)GlcNAc(b1-2)Man(a1-3)Man(b1-4)GlcNAc(b1-4)GlcNAc
# Summary of the method: as §1
# [27] = target: Neu5Ac(a2-6)Gal(b1-4)GlcNAc(b1-2)Man(a1-3)[Gal(b1-4)GlcNAc(b1-2)Man(a1-6)]Man(b1-4)GlcNAc(b1-4)GlcNAc
# Summary of the method: as §1
# [28] = target: Neu5Ac(a2-6)Gal(b1-4)GlcNAc(b1-2)Man(a1-3)[GlcNAc(b1-2)Man(a1-6)]Man(b1-4)GlcNAc(b1-4)GlcNAc
# Summary of the method: as §1
# [29] = target: Neu5Ac(a2-6)Gal(b1-4)GlcNAc(b1-2)Man(a1-3)[GlcNAc(b1-2)Man(b1-4)GlcNAc(b1-2)Man(a1-6)]Man(b1-4)GlcNAc(b1-4)GlcNAc
# Summary of the method: as §1
# [30] = target: Neu5Ac(a2-6)Gal(b1-4)GlcNAc(b1-2)Man(a1-3)[Man(a1-6)]Man(b1-4)GlcNAc(b1-4)GlcNAc
# Summary of the method: as §1
# [31] = target: Neu5Ac(a2-6)Gal(b1-4)GlcNAc(b1-2)Man(a1-3)[Neu5Ac(a2-6)Gal(b1-4)GlcNAc(b1-2)Man(a1-6)]Man(b1-4)GlcNAc(b1-4)GlcNAc
# Summary of the method: as §1
# [32] = target: Neu5Ac(a2-6)Gal(b1-4)GlcNAc(b1-2)Man(a1-6)Man(b1-4)GlcNAc(b1-4)GlcNAc
# Summary of the method: as §1
# [33] = target: Neu5Ac(a2-6)Gal(b1-4)GlcNAc(b1-2)Man(a1-6)[Gal(b1-4)GlcNAc(b1-2)Man(a1-3)]Man(b1-4)GlcNAc(b1-4)GlcNAc
# Summary of the method: as §1
# [34] = target: Neu5Ac(a2-6)Gal(b1-4)GlcNAc(b1-2)Man(a1-6)[GlcNAc(b1-2)Man(a1-3)]Man(b1-4)GlcNAc(b1-4)GlcNAc
# Summary of the method: as §1
# [35] = target: Neu5Ac(a2-6)Gal(b1-4)GlcNAc(b1-2)Man(a1-6)[Man(a1-3)]Man(b1-4)GlcNAc(b1-4)GlcNAc
# Summary of the method: as §1
# [36] = target: Neu5Ac(a2-6)Gal(b1-4)GlcNAc(b1-3)Gal(b1-3)GlcNAc
# Summary of the method: as §1
# [37] = target: Neu5Ac(a2-6)Gal(b1-4)GlcNAc(b1-3)Gal(b1-4)GlcNAc
# Summary of the method: as §1
# [38] = target: Neu5Ac(a2-6)Gal(b1-4)GlcNAc(b1-3)Gal(b1-4)GlcNAc(b1-3)Gal(b1-4)GlcNAc
# Summary of the method: as §1
# [39] = target: Neu5Ac(a2-6)Gal(b1-4)GlcNAc(b1-3)Gal(b1-4)[Fuc(a1-3)]GlcNAc(b1-3)Gal(b1-4)[Fuc(a1-3)]GlcNAc
# Summary of the method: as §1
# [40] = target: Neu5Ac(a2-6)Gal(b1-4)GlcNAc(b1-3)GalNAc
# Summary of the method: as §1
# [41] = target: Neu5Ac(a2-6)Gal(b1-4)GlcNAc6S
# Summary of the method: as §1
binder,measurement,setting,value
"StdA (Salmonella typhimurium), Q8Z3Z0 (protein) MAAAGMMYGASVFAADTTPTAGPFGSGKILFTGTITNSPCDIAPGDDAITVPFGQISYRKLNTANATTDSKPFTIHLQNCAFDPNETTIAGSAGKMSKVTVSFSGTADTSGKAYVSTGSAQHVGVQLLKGDNTSLITPNTPMPDGDAQQLQAGNNELNFFARLIALTDAATPGDVNASVTYTLKYL",glycan array binding signal (z-score),Neu5Ac(a2-3)Gal(b1-4)Glc,-0.372
same,glycan array binding signal (z-score),[1],-0.157
same,glycan array binding signal (z-score),[2],-0.012
same,glycan array binding signal (z-score),[3],-0.746
same,glycan array binding signal (z-score),[4],-0.342
same,glycan array binding signal (z-score),[5],-0.399
same,glycan array binding signal (z-score),[6],-0.744
same,glycan array binding signal (z-score),[7],0.755
same,glycan array binding signal (z-score),[8],-0.642
same,glycan array binding signal (z-score),[9],0.124
same,glycan array binding signal (z-score),[10],-0.792
same,glycan array binding signal (z-score),[11],-0.404
same,glycan array binding signal (z-score),[12],-0.614
same,glycan array binding signal (z-score),[13],-0.473
same,glycan array binding signal (z-score),[14],0.779
same,glycan array binding signal (z-score),[15],-0.198
same,glycan array binding signal (z-score),[16],2.27
same,glycan array binding signal (z-score),[17],1.41
same,glycan array binding signal (z-score),[18],-0.293
same,glycan array binding signal (z-score),[19],-0.214
same,glycan array binding signal (z-score),[20],-0.437
same,glycan array binding signal (z-score),Neu5Ac(a2-3)GalNAc,0.172
same,glycan array binding signal (z-score),[21],-0.754
same,glycan array binding signal (z-score),[22],-0.281
same,glycan array binding signal (z-score),[23],-0.022
same,glycan array binding signal (z-score),[24],0.634
same,glycan array binding signal (z-score),Neu5Ac(a2-6)Gal,-0.305
same,glycan array binding signal (z-score),Neu5Ac(a2-6)Gal(b1-4)Glc,-0.257
same,glycan array binding signal (z-score),[25],-0.291
same,glycan array binding signal (z-score),[26],-0.009
same,glycan array binding signal (z-score),[27],-0.251
same,glycan array binding signal (z-score),[28],0.231
same,glycan array binding signal (z-score),[29],0.147
same,glycan array binding signal (z-score),[30],-0.785
same,glycan array binding signal (z-score),[31],-0.397
same,glycan array binding signal (z-score),[32],-0.008
same,glycan array binding signal (z-score),[33],0.283
same,glycan array binding signal (z-score),[34],0.085
same,glycan array binding signal (z-score),[35],0.054
same,glycan array binding signal (z-score),[36],-0.819
same,glycan array binding signal (z-score),[37],-0.14
same,glycan array binding signal (z-score),[38],-0.081
same,glycan array binding signal (z-score),[39],0.009
same,glycan array binding signal (z-score),[40],0.149
same,glycan array binding signal (z-score),[41],-0.558
